# From the supplement of paper PMC3334620
# In all, about 33,000 sequences were measured (“E-score (-0.5 to 0.5)”: median about -0.043, highest 2% from about 0.37 on). This is one part of the list.
# Target: T1, Upc2 (UniProt Q12151)
# T1 sequence: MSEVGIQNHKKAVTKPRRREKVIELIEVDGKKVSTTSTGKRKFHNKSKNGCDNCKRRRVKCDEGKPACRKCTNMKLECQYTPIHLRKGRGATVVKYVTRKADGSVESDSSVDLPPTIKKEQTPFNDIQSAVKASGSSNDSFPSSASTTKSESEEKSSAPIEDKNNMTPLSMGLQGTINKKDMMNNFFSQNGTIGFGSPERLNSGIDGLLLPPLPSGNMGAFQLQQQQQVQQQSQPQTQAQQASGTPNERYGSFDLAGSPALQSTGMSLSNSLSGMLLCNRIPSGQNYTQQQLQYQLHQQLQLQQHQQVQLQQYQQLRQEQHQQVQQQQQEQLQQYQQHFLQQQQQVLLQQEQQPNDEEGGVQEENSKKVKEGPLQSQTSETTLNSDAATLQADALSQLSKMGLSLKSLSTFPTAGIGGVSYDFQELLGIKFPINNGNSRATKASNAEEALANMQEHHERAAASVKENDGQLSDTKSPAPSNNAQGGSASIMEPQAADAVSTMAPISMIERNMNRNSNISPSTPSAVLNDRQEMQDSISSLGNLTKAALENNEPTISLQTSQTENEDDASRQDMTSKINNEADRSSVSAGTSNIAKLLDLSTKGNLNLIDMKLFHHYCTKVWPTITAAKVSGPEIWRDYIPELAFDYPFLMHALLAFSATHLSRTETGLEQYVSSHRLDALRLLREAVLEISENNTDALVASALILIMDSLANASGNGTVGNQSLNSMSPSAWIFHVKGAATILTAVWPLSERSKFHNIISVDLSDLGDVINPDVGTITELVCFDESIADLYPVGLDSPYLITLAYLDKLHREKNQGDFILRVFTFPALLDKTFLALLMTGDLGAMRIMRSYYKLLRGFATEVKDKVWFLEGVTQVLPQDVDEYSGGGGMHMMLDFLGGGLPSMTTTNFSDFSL
# Experiment: PBM E-score (8-mer binding enrichment) (E-score (-0.5 to 0.5)); higher = stronger / more preferred TF binding; most listed sequences are background and not binding sites
# Settings: protein concentration: 200 nM; construct: GST-full length
# Protocol: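 Universal 'all 10-mer' protein binding microarrays (Agilent AMADID 015681) probed with GST-tagged S. cerevisiae TFs (full-length or DBD) made by in vitro transcription/translation (PURExpress), about 100-200 nM. Bound TF was detected with fluorescent anti-GST. Each ungapped 8-mer (which stands for itself and its reverse complement) is scored by the PBM enrichment score (E-score), a modified Wilcoxon-Mann-Whitney statistic from -0.5 to +0.5, computed with the Universal PBM Analysis Suite. Scale: above 0.35 generally sequence-specific binding.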
row,Sequence,PBM E-score
1,CACAGCGC,-0.304
2,GTCCTAAC,-0.0822
3,CAATCGTA,0.4
4,AAGGGGGG,-0.246
5,ACTAGGGC,-0.293
6,CGCCGCCG,-0.0601
7,ATCCAAAG,-0.0459
8,CAGTACTG,0.134
9,ATGGATGC,-0.061
10,ATTAACCG,0.229
11,GACTCTAC,0.0781
12,TACTGGAA,-0.0883
13,CGGTCTAG,0.0866
14,GGAGGGCA,-0.22
15,AAAATACG,0.346
16,CAATTTCA,-0.1
17,ACTCGTCA,-0.0246
18,CTTAGGGA,-0.23
19,AAGTTAGG,-0.142
20,AGTGTCAG,-0.0575
21,ACTCCATC,-0.211
22,GGACCCTA,-0.202
23,GCTGCGGA,-0.164
24,GTGTATCA,-0.0133
25,CAGCACAC,-0.158

row,Sequence,PBM E-score
1,ACAACAAG,0.049
2,ACGTGCAT,0.0526
3,CTAGCACA,-0.285
4,ACTTCCCC,-0.303
5,TTCGACAA,0.0423
6,CCCCAACG,-0.107
7,CGAGTAAC,0.277
8,GATGTTGC,-0.00714
9,ACAGACTC,-0.2
10,GCTGCCAA,-0.145
11,ATATGGCA,0.0254
12,CACCCACG,0.178
13,ACCAGTTA,-0.0947
14,CGCTGTCA,-0.108
15,AATCCTCG,0.0686
16,AGTGTCTC,-0.159
17,CCGTTTAA,0.466
18,GTGTGTGA,0.0874
19,ATGGCAAC,-0.0456
20,GAATGGTA,-0.118
21,AAATCGTA,0.383
22,GTTCTTCA,0.132
23,CACACAGG,-0.0693
24,ATGGTAAA,0.0691
25,CGGAATAA,-0.138

row,Sequence,PBM E-score
1,AAGATCGT,0.371
2,CTTTTTAC,0.194
3,CACTGCAC,-0.228
4,AGTTCTTG,-0.0476
5,TGCACAAA,-0.0779
6,AGCCATAC,0.279
7,CCCGGATC,-0.0679
8,CAGGGTCG,-0.0697
9,CTCTTTTA,0.241
10,AAAGATCC,-0.0446
11,AGGTTCCG,-0.0581
12,CCAAAGCA,-0.168
13,AATTACCC,-0.0615
14,CCAGAACC,-0.129
15,CAGAATGA,-0.0659
16,GAAATGAA,0.125
17,ATCCTTGC,-0.189
18,AACCATTG,0.0108
19,ACTACCTA,0.0177
20,CCCTAGCA,-0.26
21,GCTCTGCC,-0.233
22,CGACGAAG,0.201
23,GTGTAGAA,0.117
24,CTATAGAC,-0.218
25,AGCTTGGG,0.0178

row,Sequence,PBM E-score
1,GGTTTGCA,0.0633
2,GGGTTAAC,0.0324
3,AGCAAACA,0.0526
4,CAGCGTCA,-0.221
5,CCAGGTCA,-0.309
6,CATTGAGA,-0.112
7,GGATTCCC,-0.161
8,CGTTCAAA,0.369
9,CATTGCGA,-0.0248
10,AGTTCCTG,-0.211
11,TGGCTCAA,-0.0798
12,AATCTGAT,-0.248
13,CCTCTTAC,0.216
14,CTTTTGTA,0.129
15,AGCGAGAC,0.151
16,CTCATGCC,-0.0922
17,ACGACGGG,0.415
18,GTGGTGAA,-0.133
19,TGCAACCA,-0.0356
20,CCTGGACA,-0.232
21,CCTAGTAC,0.0299
22,CTGCACCA,-0.174
23,CCAGGCAA,-0.145
24,CACGGGCA,-0.176
25,CAGTAACC,-0.0715

row,Sequence,PBM E-score
1,GGTTATCA,-0.117
2,AACTTTGT,-0.172
3,CTTCTGGC,-0.215
4,ATTCCCCA,-0.185
5,CGTGGAAG,-0.00238
6,CGCCTTAA,0.128
7,GGGGGACA,0.0396
8,CATTCACG,-0.0631
9,GGTGTGGA,0.00988
10,GGACCTAA,0.118
11,ATCACTTC,-0.0496
12,CCCTTAAC,0.0417
13,AGACCCTC,-0.325
14,ATATAATA,-0.0226
15,GGGTAACA,0.00245
16,CACGCGTC,0.0558
17,CGCCATGC,-0.137
18,CGCCGTGA,-0.138
19,CACGGGGC,-0.174
20,AGAGGTCA,-0.0612
21,AGCTGACA,-0.132
22,AGCGGCCT,-0.254
23,CCGTATTC,0.304
24,GCTAAGTA,-0.0628
25,CCTTTGCA,-0.0476

row,Sequence,PBM E-score
1,ACAAGGGA,-0.205
2,ACGCTCGA,0.071
3,AGTTGTAG,-0.161
4,GCTGCGCA,-0.215
5,GCGTCACA,-0.0716
6,ACGTCGGC,0.0769
7,CCTCCAAA,0.0217
8,AGTAAGAG,-0.0488
9,CACACCGC,-0.0268
10,AACATAGG,-0.0922
11,TAAACTGA,0.0405
12,GATTCTAA,0.0686
13,AAATCGGA,-0.0167
14,GTCATTGA,-0.0998
15,AAGTCCGG,-0.167
16,ACCGCACA,-0.034
17,ACCTATTC,0.114
18,AAAGGCTA,-0.173
19,ACGGAGCT,0.0658
20,ATTTTCTG,0.0455
21,AAGCCCCA,-0.193
22,ATAACTGC,-0.188
23,AGCAAGTC,-0.148
24,ATCTATCG,0.0972
25,GGACTAAA,-0.0699

row,Sequence,PBM E-score
1,CGATCGGC,0.0356
2,AAAGTCGC,0.118
3,AATCAGAG,-0.017
4,CGGACTGA,-0.119
5,GTAACACA,0.0886
6,AACAGTAG,-0.00931
7,CGCCCCTA,-0.066
8,CAAGAGAA,0.0518
9,ACGACGTC,0.367
10,CGTACTGA,0.292
11,TACGGCCA,0.292
12,GCGAGAAC,0.159
13,GCATCCGA,-0.01
14,AGTCGACC,-0.0977
15,ATGGGCAG,-0.171
16,CCCGAAGA,-0.0235
17,CCAAACGA,0.476
18,GCCTAGGA,-0.336
19,CAATTGAG,-0.0204
20,CTGCTTGC,-0.0297
21,ACACCCCG,-0.0396
22,ACAGCACA,0.0988
